From patent US12653191B2, “Active compound combinations” (Bayer Aktiengesellschaft, priority 2020, dated 2026)
Where “and” joins values, the source holds several entries; their conditions need not be identical. Equal values may be shown once. At least one read-out could not be matched to a standard name with certainty.

Tests used:
Alternaria alternate = assay: in vitro-Test with fungal microorganisms, Method A (tables A1-A12); assay type: cell-based, Alternaria alternata; settings: applied alone
Experimental: (§1) Example: In Vitro-Test with Fungal Microorganisms
(§2) Wells of 96-well microtiter plates are filled with 10 μl of a preparation of test compound or compound combination in methanol+emulsifier alkylaryl-polyglycol-ether. Thereafter, the solvent is evaporated in a hood. At the next step, 100 μl of liquid potato dextrose medium is given into each well, that has been amended with an appropriate concentration of spores or mycelium suspension of the test fungus.
(§3) With the aid of a photometer, the extinction in all wells is measured at the wavelength of 620 nm.
(§4) The microtiter plates are incubated at 20° C. and 85% relative humidity. The inhibition of growth is determined again photometrically 3-5 days after the application. Efficacy is calculated in relation to the untreated control, 0% efficacy means fungal growth as high as in untreated control while 100% efficacy means no fungal growth is measured.
(§5) The data in tables A1 to A12, B1 to B14, C1 to C10, D1 to D8, E1 to E8, F1 to F11, G1 to G4, H1 to H4 and I1 to I5 were collected according to Method A. The data in tables A13 to A22, B15 to B18, C11 to C20, E9 to E16, F12 to F15, G5 to G15, H5 to H8, I6 to I11 and J1 to J11 were collected according to Method B.

Cercospora beticola [1] = assay: in vitro-Test with fungal microorganisms, Method A (tables C1-C10); assay type: cell-based; settings: 0.2 ppm alone
Experimental: as §1, §2, §3, §4, §5

Diaporthe citri = assay: in vitro-Test with fungal microorganisms, Method A (tables F1-F11); assay type: cell-based; settings: applied alone
Experimental: as §1, §2, §3, §4, §5

[2] = tested on: Ustilago segetum var. avenae; assay: in vitro-Test with fungal microorganisms, Method A (tables I1-I5); assay type: cell-based; settings: alone
Experimental: as §1, §2, §3, §4, §5

Alternaria alternata = assay: in vitro-Test with fungal microorganisms, Method B (tables A13-A22); assay type: cell-based
Experimental: as §1
as §2, with “30” for “10”, “200” for “100”, “growth” for “potato dextrose”, “given,” for “given into each well,”
(§6) With the aid of a photometer, the extinction in all wells is measured at the wavelength of 600 nm.
(§7) The microtiter plates are incubated for 3 to 7 days at 20° C. and 85% relative humidity. After the incubation inhibition of growth is determined photometrically. Efficacy is calculated in relation to the untreated control, 0% efficacy means fungal growth as high as in untreated control while 100% efficacy means no fungal growth is measured.
as §5

Cercospora beticola [3] = assay: in vitro-Test with fungal microorganisms, Method B (tables C11-C20); assay type: cell-based; settings: single compound
Experimental: as §1
as §2, with “30” for “10”, “200” for “100”, “growth” for “potato dextrose”, “given,” for “given into each well,”
as §6, §7, §5

Botrytis cinerea [4] = assay: in vitro-Test with fungal microorganisms, Method A (tables B1-B14); assay type: cell-based; settings: for Efficacy %: alone
Experimental: as §1, §2, §3, §4, §5

[5] = tested on: Ustilago segetum var. avenae; assay: in vitro-Test with fungal microorganisms, Method B (tables I6-I11); assay type: cell-based
Experimental: as §1
as §2, with “30” for “10”, “200” for “100”, “growth” for “potato dextrose”, “given,” for “given into each well,”
as §6, §7, §5

Parastagonospora nodorum = assay: in vitro-Test with fungal microorganisms, Method B (tables H5-H8); assay type: cell-based
Experimental: as §1
as §2, with “30” for “10”, “200” for “100”, “growth” for “potato dextrose”, “given,” for “given into each well,”
as §6, §7, §5

[6] = tested on: Colletotrichum lindemuthianum; assay: in vitro-Test with fungal microorganisms, Method A (tables D1-D8); assay type: cell-based
Experimental: as §1, §2, §3, §4, §5

Cordana musae [7] = assay: in vitro-Test with fungal microorganisms, Method A (tables E1-E8); assay type: cell-based; settings: single substance
Experimental: as §1, §2, §3, §4, §5

Colletotrichum coccodes = assay: in vitro-Test with fungal microorganisms, Method B (tables J1-J11); assay type: cell-based
Experimental: as §1
as §2, with “30” for “10”, “200” for “100”, “growth” for “potato dextrose”, “given,” for “given into each well,”
as §6, §7, §5

Cordana musae [8] = assay: in vitro-Test with fungal microorganisms, Method B (tables E9-E16); assay type: cell-based; settings: single active
Experimental: as §1
as §2, with “30” for “10”, “200” for “100”, “growth” for “potato dextrose”, “given,” for “given into each well,”
as §6, §7, §5

Botrytis cinerea [9] = assay: in vitro-Test with fungal microorganisms, Method B (tables B15-B18); assay type: cell-based
Experimental: as §1
as §2, with “30” for “10”, “200” for “100”, “growth” for “potato dextrose”, “given,” for “given into each well,”
as §6, §7, §5

For `Cc1cc(C2=NOCC(Cc3ccc(Br)cc3C)N2)c(Oc2cccc(Cl)c2F)nn1` (racemic) [Compound I-300, rac-5-[(4-bromo-2-methylphenyl)methyl]-3-[3-(3-chloro-2-fluorophenoxy)-6-methylpyridazin-4-yl]-5,6-dihydro-4H-1,2,4-oxadiazine], the Efficacy % (Alternaria alternate; 0.1 ppm) was 84%.
`CC1COC(Cn2cncn2)(c2ccc(Oc3ccc(Cl)cc3)cc2Cl)O1` (stereo not shown) [(1.002) difenoconazole, difenoconazole] showed an Efficacy % (Cercospora beticola [1]) of 71%, an Efficacy (Diaporthe citri; 0.008 ppm) of 0.008% and an Efficacy % ([2]; 0.008 ppm) of 10%. The Efficacy % ([2]; 0.04 ppm) was 12%, the Efficacy % ([2]; 0.2 ppm) was 45% and 85% and the Efficacy % (Alternaria alternate; 0.04 ppm) was 17%. It also gave an Efficacy % (Alternaria alternate; 0.2 ppm) of 39%, an Efficacy % (Alternaria alternate; 1.0 ppm) of 91% and an Efficacy (Alternaria alternata; single compound, 1 ppm) of 100%. The Efficacy % (Cercospora beticola [3]; 0.008 ppm) was 11% and the Efficacy % (Cercospora beticola [3]; 0.04 ppm) was 62%.
`CCCN(CC)CC1COC2(CCC(C(C)(C)C)CC2)O1` (stereo not shown) [(1.020) spiroxamine, spiroxamine] was tested, and the Efficacy % (Botrytis cinerea [4]; 4.0 ppm) was 8% and 0%, the Efficacy % ([5]; 20 ppm) was 74% and 100% and the Efficacy % (Alternaria alternate; 0.8 ppm) was 20%. The Efficacy % (Alternaria alternate; 4 ppm) was 21%, the Efficacy % (Alternaria alternate; 20 ppm) was 22% and the Efficacy % (Cercospora beticola [3]; 0.8 ppm) was 4% and 0%.
With `CC(C)(C)C(O)(CCc1ccc(Cl)cc1)Cn1cncn1` (stereo not shown) [(1.021) tebuconazole, tebuconazole] the Efficacy (Parastagonospora nodorum; 0.2 ppm) was 63% and the Efficacy (Parastagonospora nodorum; 1 ppm) was 99%.
`CCN(C)C=Nc1cc(C)c(Oc2cccc(SC(F)(F)C(F)F)c2)cc1C` [(1.067), N′-(2,5-dimethyl-4-{3-[(1,1,2,2-tetrafluoro-ethyl)sulfanyl]-phenoxy}phenyl)-N-ethyl-N-methyl-imidoformamide] gave an Efficacy (Alternaria alternata; single compound, 0.016 (column head prints no ppm)) of 0%.
For `O=C(NCCc1ncc(C(F)(F)F)cc1Cl)c1ccccc1C(F)(F)F` [(2.005) fluopyram, Fluopyram], the Efficacy % ([6]; single active at 0.8 ppm) was 6% and 0%, the Efficacy % ([6]; single active at 20.0 ppm) was 28% and the Efficacy (Botrytis cinerea [4]; 0.8 ppm) was 67%. For the same compound, the Efficacy (Botrytis cinerea [4]; 20.0 ppm) was 86%, the Efficacy % (Cordana musae [7]; 4.0 ppm) was 2% and the Efficacy (Diaporthe citri; 0.8 ppm) was 1% and 0%. The Efficacy (Diaporthe citri; 4.0 ppm) was 20%, the Efficacy % (Alternaria alternate; 0.8 ppm) was 57% and 86% and the Efficacy % (Alternaria alternate; 4 ppm) was 80%. The Efficacy % (Cercospora beticola [3]; 0.8 ppm) was 7% and the Efficacy % (Cercospora beticola [3]; 20 ppm) was 12%.
For `CON=C(C(=O)OC)c1ccccc1CON=C(C)c1cccc(C(F)(F)F)c1` [(3.020) trifloxystrobin, trifloxystrobin], the Efficacy % ([6]; single active at 0.04 ppm) was 59%, the Efficacy % (Cordana musae [7]; 0.2 ppm) was 61% and the Efficacy % (Cordana musae [7]; 1.0 ppm) was 68%. The Efficacy % ([2]; 1.0 ppm) was 54%, the Efficacy % ([5]; 0.2 ppm) was 50% and the Efficacy % (Alternaria alternate; 0.008 ppm) was 58%. The Efficacy % (Alternaria alternate; 0.04 ppm) was 78% and 79%, the Efficacy % (Alternaria alternate; 0.2 ppm) was 97% and 98% and the Efficacy % (Alternaria alternate; 1.0 ppm) was 99%.
For `O=C1C2CC=CCC2C(=O)N1SC(Cl)(Cl)Cl` (stereo not shown) [(5.003) captan, captan], the Efficacy (Parastagonospora nodorum; 5 ppm) was 75% and 100%, the Efficacy % ([2]; 20.0 ppm) was 67% and 100% and the Efficacy (Alternaria alternata; single compound, 5 ppm) was 79% and 100%. For the same compound, the Efficacy % (Cercospora beticola [3]; 1 ppm) was 61% and 38%.
Work on `N#Cc1sc2c(=O)c3ccccc3c(=O)c=2sc1C#N` [(5.010) dithianon, dithianon] yielded an Efficacy % ([6]; single active at 20.0 ppm) of 99% and an Efficacy % ([2]; 0.8 ppm) of 8%.
`O=C1c2ccccc2C(=O)N1SC(Cl)(Cl)Cl` [(5.012) folpet, folpet] was tested, and the Efficacy % (Botrytis cinerea [4]; 0.08 ppm) was 8%, the Efficacy % (Botrytis cinerea [4]; 0.4 ppm) was 8% and the Efficacy % ([2]; 0.08 ppm) was 13% and 4%. For the same compound, the Efficacy % ([2]; 0.4 ppm) was 19% and the Efficacy % (Alternaria alternate; 0.08 ppm) was 4% and 0%.
In the case of `Cc1cc(C)nc(Nc2ccccc2)n1` [(7.005) pyrimethanil, pyrimethanil], the Efficacy (Botrytis cinerea [4]; 0.8 ppm) is reported as 100% and 76%, the Efficacy % (Cordana musae [7]; 20.0 ppm) is reported as 33% and the Efficacy % ([5]; 0.8 ppm) is reported as 16%. The Efficacy % ([5]; 4 ppm) was 24%.
`Fc1ccc(Oc2ccnc3cc(Cl)cc(Cl)c23)cc1` [(13.005) quinoxyfen, quinoxyfen] was tested, and the Efficacy % (Colletotrichum coccodes; single active compound at 2 ppm) was 16%, the Efficacy % (Colletotrichum coccodes; single active compound at 10 ppm) was 19% and the Efficacy % (Botrytis cinerea [4]; 2.0 ppm) was 0% and 2%. For the same compound, the Efficacy % (Botrytis cinerea [4]; 10.0 ppm) was 0% and 7%.
For `COc1cc(C)c(C(=O)c2c(OC)ccc(Br)c2C)c(OC)c1OC` [(15.016) metrafenone, metrafenone], the Efficacy % (Colletotrichum coccodes; single active compound at 0.04 ppm) was 3% and 0%, the Efficacy (Alternaria alternata; 0.04 ppm) was 3% and 1% and the Efficacy (Alternaria alternata; 5 ppm) was 19%. For the same compound, the Efficacy % (Cercospora beticola [3]; 0.04 ppm) was 2% and 0%.
In the case of `CCN(C)C=Nc1cc(C)c(Oc2ccccc2F)cc1Cl` [(15.064), N′-[2-chloro-4-(2-fluorophenoxy)-5-methylphenyl]-N-ethyl-N-methylimidoformamide], the Efficacy % (Cordana musae [7]; 2.0 ppm) is reported as 0% and 7%, the Efficacy (Diaporthe citri; 0.08 ppm) is reported as 13% and 3% and the Efficacy (Diaporthe citri; 0.4 ppm) is reported as 8% and 0%.
For `Cc1ccc(C[C@H]2CON=C(c3cc(C)nnc3Oc3cccc(C4CC4)c3F)N2)c(C)c1` [Compound I-130, (5S)-3-[3-(3-cyclopropyl-2-fluorophenoxy)-6-methylpyridazin-4-yl]-5-(2,4-dimethylbenzyl)-5,6-dihydro-4H-1,2,4-oxadiazine], the Efficacy (Alternaria alternata; 0.008 ppm) was 19%.
`Cc1ccc(C[C@@H]2CON=C(c3cc(C)nnc3Oc3cccc(Cl)c3F)N2)c(Cl)c1` [Compound I-338, (5R)-3-[3-(3-chloro-2-fluorophenoxy)-6-methylpyridazin-4-yl]-5-(2-chloro-4-methylbenzyl)-5,6-dihydro-4H-1,2,4-oxadiazine] was tested, and the Efficacy (Cordana musae [8]; 0.008 ppm) was 5% and 0% and 4% and 1%, the Efficacy (Cordana musae [8]; 0.04 ppm) was 4% and 0% and 8% and the Efficacy % (Botrytis cinerea [9]; 0.008 ppm alone) was 0% and 3%. For the same compound, the Efficacy % (Botrytis cinerea [9]; 0.04 ppm alone) was 0% and 6%, the Efficacy % (Botrytis cinerea [9]; 1 ppm alone) was 74% and the Efficacy (Alternaria alternata; 0.04 ppm) was 0% and 4%. The Efficacy (Alternaria alternata; 0.2 ppm) was 0% and 10%, the Efficacy (Alternaria alternata; 1 ppm) was 27% and 52% and the Efficacy (Alternaria alternata; single compound, 0.008 ppm) was 1% and 3% and 0%. The Efficacy (Alternaria alternata; single compound, 0.04 ppm) was 0% and 2% and 3% and the Efficacy (Alternaria alternata; single compound, 0.2 ppm) was 8% and 0%.
